Measurements as given in the supplement of paper PMC12217912.
The other results are listed elsewhere or left out. Sequences were assembled here from the parent chain. Inactive controls read about 0.05.

B1: TEV protease; numbered along this chain (parent)
chain: MGESLFKGPRDYNPISSSICHLTNESDGHTTSLYGIGFGPFIITNKHLFRRNNGTLVVQSLHGVFKVKDTTTLQQHLVDGRDMIIIRMPKDFPPFPQKLKFREPQREERICLVTTNFQTKSMSSMVSDTSCTFPSGDGIFWKHWIQTKDGQCGSPLVSTRDGFIVGIHSASNFTNTNNYFTSVPKNFMELLTNQEAQQWVSGWRLNADSVLWGGHKVFMVKPEEPFQPVKEATQL

Variants of: B1
Assay: raw area under fraction-flipped curve 0-4 h after induction (AUC4h, not background-subtracted), DNA-recorder readout of cleavage of the substrate (dimensionless); higher = more cleavage of the substrate by the protease variant
Settings: temperature: 34 °C; time window: 0-4 h after rhamnose induction
Method: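 In vivo DNA recorder in E. coli TOP10(DE3) ΔrhaA at 34 °C. Each TEVp single-site mutant (parent TEVp 0) is paired with a single-site variant of the 7-mer TEVs (canonical ENLYFQ|S). The substrate sits between flexible linkers in a Bxb1-sfGFP-TEVs-SsrA fusion, so cleavage stabilises Bxb1 and speeds flipping of a recombination array, read by NGS. The value is the raw area under the fraction-flipped curve over 0-4 h after rhamnose induction (AUC4h), with ≥20 reads per time point. It is not background-subtracted; inactive controls average about 0.047.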
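Further: Bxb1 expression induced with 0.2% (w/v) L-rhamnose at OD600 near 0.5, cultures sampled hourly, flipped fraction per protease–substrate barcode pair counted by paired-end Illumina sequencing.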

Variant	area with substrate ENLYFAS	area with substrate ENLYFES	area with substrate ENLYFFS	area with substrate ENLYFGS	area with substrate ENLYFHS	area with substrate ENLYFIS	area with substrate ENLYFKS	area with substrate ENLYFLS	area with substrate ENLYFMS	area with substrate ENLYFNS	area with substrate ENLYFPS	area with substrate ENLYFRS	area with substrate ENLYFSS	area with substrate ENLYFTS	area with substrate ENLYFWS	area with substrate ENLYFCS	area with substrate ENLYFDS	area with substrate ENLYFVS	area with substrate ENLYFYS
Q105P	0.0594	0.0547	0.0699	0.0455	0.0553	0.0448	0.055	0.0543	0.0462	0.0645	0.0432	0.0576	0.0426	0.0469	0.0565	–	–	–	–
V67P	0.04	0.0511	0.0474	0.051	0.0468	0.0468	0.0416	0.0162	0.0395	0.0482	0.0371	0.0401	–	0.0223	0.0491	0.0351	0.0259	0.0545	–
G150D	0.105	0.0503	0.0726	–	–	–	–	0.0324	0.0562	0.0554	0.0557	–	–	0.0541	0.0913	–	–	0.0522	–
N53F	0.0616	0.0473	0.0565	0.058	–	0.0575	–	–	–	–	0.0323	–	0.0353	–	–	0.0656	0.0572	–	0.0472
V67F	0.0678	0.0829	–	–	–	0.0508	0.0566	0.0562	0.0628	0.0618	–	–	0.0522	–	0.0528	0.0624	0.06	–	0.0581
Q146H	0.0553	0.0634	0.0682	–	–	0.0464	0.0629	0.0668	0.0678	0.0597	0.0496	0.0777	0.0565	0.0729	0.0587	0.0445	0.164	–	0.0543
M188A	0.062	0.0507	0.0756	0.0624	–	–	0.0657	0.0661	0.0645	–	0.0602	–	0.0617	0.0491	–	0.0697	–	0.0521	–
V67I	0.0492	–	0.0694	–	0.0553	–	0.0573	–	0.083	0.0604	0.0446	–	0.0633	0.0576	–	–	–	–	0.068
Q59D	0.0687	–	0.0764	–	–	–	–	–	0.075	–	–	–	–	0.0646	–	–	0.0593	0.0686	–
F6G	0.0497	–	0.0659	–	0.0724	0.0466	–	–	–	0.0654	0.0385	–	–	–	–	–	–	–	–
P225H	0.0615	0.0667	0.0787	–	–	0.0545	0.0602	–	–	–	0.0653	–	0.0921	0.0092	0.0577	0.0607	0.0491	–	–
V165W	0.0527	–	0.0494	–	–	0.0524	–	–	–	0.055	0.0518	0.0672	–	0.0461	–	0.0426	0.0561	0.0532	–
N52A	0.063	0.0644	0.0472	–	–	0.0556	0.0701	0.0503	0.053	0.0594	0.0596	0.0544	0.0641	0.0558	–	–	0.0766	–	0.0601
I145M	0.0598	0.0552	0.0613	0.0552	0.0495	0.0589	0.052	–	0.0714	–	0.0615	0.0549	–	0.0614	0.0599	0.051	0.0601	0.0267	0.0328
P89M	0.0523	0.0615	0.071	–	–	0.0512	–	0.0421	0.0431	–	–	0.0459	–	0.0453	0.0448	0.0491	–	–	–
